Results reported in ChEMBL document CHEMBL4888484, “Replenishing the malaria drug discovery pipeline: Screening and hit evaluation of the MMV Hit Generation Library 1 (HGL1) against asexual blood stage Plasmodium falciparum ,using a nano luciferase reporter read-out” (2022).
Among all 150,000 compounds or so, about 540 (0.36%) showed an effect of 50% or more. Some of the results follow.

Each molecule was assayed on Plasmodium falciparum (assay: Primary screen in NF54 nanoGlo assay, in single point, at 2uM, 72h; a lower Z score goes with more inhibition). Conditions: timepoint 72 hour.
Assay type: functional, Erythrocyte

Structure (SMILES)	% Inhibition [%]	Z score
CCCC(=O)N1CCC[C@H]1C(=O)N1CCC(c2nccc(C)n2)CC1	-10	1.37
CC(C)OCCS(=O)(=O)NC1CCC(C(F)(F)F)CC1 (stereo not drawn)	-22	3.14
O=C(C[C@@H](CN1Cc2ccccc2C1=O)c1ccc(Cl)cc1)N1CCCCCC1	-16	2.01
CC(C)S(=O)(=O)NC1=NCN(CCN2CCOCC2)CN1	-11	1.42
CN(C(=O)Nc1ccccc1OCCCc1ccccc1)C1CCOCC1	-11	2.19
COc1ccc(NC(=O)CN2CCN(C(C)=O)CC2)cc1S(=O)(=O)N1CCCCC1	1	-0.21
O=C1CC[C@@]2(CCN(C(=O)CCCc3ccccc3)C2)N1	-4	0.59
CNc1ncccc1C(=O)NC(c1ccc2c(c1)CCO2)[C@H]1C[C@@H](O)C1 (stereo partly drawn)	-16	3.01
Cc1ccc(NC(=O)Cn2c(C)ncc(C(=O)NC3CCCC3)c2=O)c(C)c1	9	-1.4
O=C(Cc1c[nH]c2ccccc12)N1CCC(F)(C(=O)NCc2ccccc2)CC1	0	0
CCCS(=O)(=O)Nc1scnc1CC	-8	1.22
O=C(NCCc1ccccc1)c1nc(Cn2nc(-c3ccccc3)ccc2=O)no1	-7	0.81
CC1(C)CC(=O)c2sc3nc(-c4ccc(Cl)cc4)cn3c2C1	-10	1.75
O=C(CC1(C(F)(F)F)CC1)N1CC[C@H](CN2CCOC2=O)C1	-9	1.09
O=C(c1ccoc1)N(c1ccccc1)C1CCCCC1	-16	1.72
CS(=O)(=O)N1CCc2[nH]cnc2C12CCN(C(=O)CCC1CC1)CC2	-4	0.68
CCc1cc([C@H](C)NC(=O)c2cc(-c3ccccc3)on2)on1	4	-0.71
Cn1ccnc(NCCc2c[nH]c3ccc(Br)cc23)c1=O	0	0.07
N#Cc1nc(C2CC2)oc1N1CCN(C(=O)CN2CCCC2=O)CC1	-42	4.92
O=C(CCn1cc(Cl)cn1)N1CCC(CN2CCCC2=O)CC1	-11	2.35
CC(C)C(NC(=O)c1ccc(Br)cc1)C(C)C	-4	0.53
Cc1ncsc1CCN(C)Cc1ccc([C@@H]2CCCCO2)s1	6	-0.66
CC(C)Cn1ncnc1CN[C@@H](C)c1cc2ccccc2o1	-10	1.61
CCN(CC)c1ncc(CN2CCC(O)(C(F)(F)F)CC2)s1	-14	2.56
